Assay results: PubChem BioAssay AID485344 (National Center for Advancing Translational Sciences (NCATS), 2010)
Screen size: about 340,000 compounds; about 6,900 (2%) were called active. Rule as the data show it: active = inhibition above about 30%; inactive = below that, where a call was filed. The list shows a part of the results, in another mix than the full data. Where no call is shown, the source filed none.

The compounds below were run against D(2) dopamine receptor (Homo sapiens) (UniProt P14416) (assay: HTS Assay for Allosteric Antagonists of the Human D2 Dopamine Receptor: Primary Screen for Antagonists). Conditions: HEK293 TREx D2 cells, calcium flux, dopamine EC80; at 10 µM; stronger effect = higher value.
UniProt P14416, sequence (P14416 whole entry, looked up): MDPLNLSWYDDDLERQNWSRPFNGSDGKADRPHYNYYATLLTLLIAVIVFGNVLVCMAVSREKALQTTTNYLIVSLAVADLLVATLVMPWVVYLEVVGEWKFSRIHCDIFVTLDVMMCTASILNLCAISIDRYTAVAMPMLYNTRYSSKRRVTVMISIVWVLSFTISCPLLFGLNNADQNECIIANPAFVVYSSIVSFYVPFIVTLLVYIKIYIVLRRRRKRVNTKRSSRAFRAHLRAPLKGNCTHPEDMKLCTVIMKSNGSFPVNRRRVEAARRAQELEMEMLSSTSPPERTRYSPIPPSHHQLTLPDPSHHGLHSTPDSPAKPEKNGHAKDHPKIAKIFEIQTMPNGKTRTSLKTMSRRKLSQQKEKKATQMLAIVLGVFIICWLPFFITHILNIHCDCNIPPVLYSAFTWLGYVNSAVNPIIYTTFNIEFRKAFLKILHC
Procedure, shortened: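 Antagonism is scored as inhibition of an EC80 dopamine-evoked calcium signal in a force-coupled, tetracycline-inducible HEK293 T-REx D2 line, with compound present 180 s before agonist.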
Also: 0% is about no effect.

SMILES	inhibition
COCCn1ccc2c(OCC(=O)Nc3ccccc3F)cccc2c1=O	20.6%
COC(=O)C1=C(C(=O)c2ccc(C)cc2)C(c2ccc(OC)c(OC)c2)n2nnnc2N1 (stereo unspecified)	active: 32.8%
CCOC(=O)C1(CC2CCCCO2)CCN(C(=O)Nc2ccc(C(=O)OC)cc2)CC1 (stereo unspecified)	active: 31.9%
CCOC(=O)N1CCc2c(sc3c2c(=O)n(CCc2ccccc2)c(=O)n3CC(=O)Nc2cccc(C)c2)C1	-1.76%
CC(C)(C)C1CCc2c(sc3nnn(CCOc4ccccc4)c(=O)c23)C1 (stereo unspecified)	-11%
Cc1ccc(C)c(NC(=O)c2nn(C)c3c2CS(=O)(=O)c2ccccc2-3)c1	-3.9%
COc1cc(/C=C/c2nc(C#N)c(NCCc3ccccc3)o2)cc(OC)c1OC	-5.55%
Cc1ccc(CNC(=O)c2ccc(-c3nc(CS(=O)c4ccccc4)c(C)o3)cc2)cc1 (stereo unspecified)	1.42%
Cc1cccc(-c2nc(CSCC(=O)NCCc3ccc(Cl)cc3)c(C)o2)c1	7.74%
Cc1ccc(C)c(NC(=O)CN2C(=O)c3cccnc3Oc3ccc(C)cc32)c1	-6.32%
Cc1ccc(-c2nn(CC(=O)NC3CCCC3)c3c2cnc2ccccc23)cc1	0.196%
CCc1cccc(CC)c1-n1nnc2c(sc3nc(C)cc(C)c32)c1=O	15.1%
Cc1cc(=O)n(Cc2cccc(F)c2)c2c1c(C)nn2-c1cccc(F)c1	-9.02%
Cc1ccccc1CN1c2ccccc2-c2nc(SCC(N)=O)ncc2S1(=O)=O	5.98%
O=C(CSc1nc(-c2ccc(F)cc2)[nH]c1-c1ccccc1)Nc1ccccc1	9.06%
CCc1ccc(-c2nn(CC(=O)Nc3ccccc3C)c3c2cnc2ccc(C)cc23)cc1	13.5%
Clc1ccc(OCc2nc3ccccc3n2Cc2ccccc2)c(Cl)c1	8.28%
COc1ccc(OC)c(C2C(C(=O)N3CCCCC3)=C(C)Nc3nc4ccccc4n32)c1 (stereo unspecified)	4.73%
Cc1cc(C)c(NC(=O)Cn2c(=O)nc(-c3ccccc3)c3cc(Cl)ccc32)c(C)c1	11.2%
CC(C)(C)c1ccc(CN(Cc2ccco2)c2cnc(S(C)(=O)=O)nc2C(=O)Nc2ccc(F)cc2)cc1	21.6%
CNC(=O)Cn1c(=O)c2cccn2c2ccc(F)cc21	-7.86%

SMILES	inhibition
Cc1cccc(NC(=O)c2cc(S(=O)(=O)N3CCN(c4ccccc4F)CC3)ccc2F)c1C	2.09%
COc1ccc(CNC(=O)CCn2nc(C)c3c(C)n(-c4ccccc4)nc3c2=O)c(OC)c1	6.63%
COc1ccc(CNC(=O)c2ccc3nc(CCc4ccccc4)oc3c2)c(OC)c1	-1.16%
CC(C)CNc1ncnc2c1nnn2C	5.82%
O=C(CCNS(=O)(=O)c1cccc2nsnc12)NCc1ccccc1	4.91%
Cc1c(Cl)cccc1-n1ncc(C(=O)NCc2cccs2)c1C1CCN(C(=O)OC(C)(C)C)CC1	3.85%
CCCn1c(N)c(Sc2ccccc2)c(=O)n(CCC)c1=O	active: 49%
Cc1ccc(OC(=O)CSc2nnc(-c3cccs3)o2)cc1C	7.71%
Cc1ccc(S(=O)(=O)N2CCOC2CNC(=O)C(=O)NCc2ccc3c(c2)OCO3)cc1 (stereo unspecified)	active: 66%
CCOc1ccc(-n2c(SCC(=O)N3CCCCCC3)nc3c([nH]c4ccccc43)c2=O)cc1	-24.9%
CCn1cc(C(=O)NCCc2ccc(OC)c(OC)c2)c(=O)c2cc(S(=O)(=O)N3CCC(C)CC3)ccc21	-7.17%
CCOc1ccc(N(CC(=O)Nc2ccccc2CC)S(=O)(=O)c2c(C)[nH]c(=O)[nH]c2=O)cc1	9.58%
Cc1ccc(NC(=O)Cn2c(=O)oc3ccccc32)cc1C	4.34%
Cc1ccc(NC(=O)c2sc3nc[nH]c(=O)c3c2C)cc1Cl	-24.1%
CCOc1ccccc1NC(=O)Cn1c(=O)n(Cc2ccco2)c(=O)c2ccc(C(=O)NC3CCCC3)cc21	1.09%
COc1ccc(Cl)cc1NC(=O)Cn1nc(Cc2ccncc2)c2ccccc2c1=O	8.5%
COc1ccccc1NC(=O)N1CCC(CN2CCc3ccccc3C2)CC1	-5.6%
CCc1ccccc1NC(=O)C1CCN(C(=O)N2CC(C)Oc3ccc(Cl)cc32)CC1 (stereo unspecified)	19.3%
Cc1cc(F)ccc1NC1(c2ccccc2)C(=O)c2ccccc2C1=O	2.7%
CC(C)Cn1cnc2c(c(-c3ccccc3)c(-c3ccccc3)n2Cc2ccco2)c1=N	active: 46.4%
Cc1c(-c2nc(-c3ccccc3F)no2)nnn1-c1cc(F)ccc1F	5.68%

SMILES	inhibition
CCCNC(=O)C(C)n1nc(C)c2c(C)n(-c3ccccc3)nc2c1=O (stereo unspecified)	1.89%
Cc1ccc(CNC(=O)CSc2c3c(nc4cc(Cl)ccc24)CCCC3)cc1	-3%
Cc1ccc(CC(=O)Nc2nncs2)cc1	active: 47.3%
CCOC(=O)CSc1nc(-c2ccc(Cl)cc2)cc(C(F)(F)F)c1C#N	1.76%
Cc1ccc(C(=O)Oc2c(S(=O)(=O)c3ccccc3)c(C)nn2-c2ccccc2)cc1	1.75%
CN1C(=O)c2ccccc2Sc2ccc(NC(=O)NCc3cccc(Cl)c3)cc21	9.72%
Cc1cn2c(=O)cc(COC(=O)c3cccc(NC(=O)COc4ccccc4C)c3)nc2s1	15.4%
Cc1ccc(NC(=O)CCNS(=O)(=O)c2cccc3nonc23)cc1Cl	-4.3%
Cc1ccc(Cc2nc3ccccc3nc2SCC(=O)N2CCCc3ccccc32)cc1	13.9%
COc1ccc(-n2c(-c3ccc(C)cc3)cc3c2CC(C)(C)CC3=O)c(OC)c1	-3.74%
Cc1ccccc1C(=O)NCCc1csc(-c2ccc(C(F)(F)F)cc2)n1	2.93%
COc1ccc(CCNC(=O)c2ccc3c(c2)N(Cc2ccccc2F)C(=O)c2ccccc2S3=O)cc1OC (stereo unspecified)	-5.82%
CCOc1ccccc1CNC(=O)CCc1c(C)nn(-c2ccc(N3CCOCC3)nn2)c1C	-2.59%
O=C(CN1C(=O)COc2ccc(S(=O)(=O)N3CCCC3)cc21)N1CCN(c2cccc(C(F)(F)F)c2)CC1	12%
COCC(=O)N1CCN(c2cccc(C(F)(F)F)c2)CC1	active: 43.9%
COc1ccc(N2CCN(S(=O)(=O)CCNC(=O)COc3ccccc3F)CC2)cc1	17.9%
CCN(CC)S(=O)(=O)c1ccc(C(=O)NCCSc2c(-c3ccc(C)cc3)[nH]c3ccccc23)cc1	-7.77%
CCN1CCN(C(=O)Cn2c(-c3cccs3)cc3ccccc32)CC1	1.45%
COc1cccc(OCc2cc(=O)n3c(-c4ccccc4)csc3n2)c1	14.4%
